Laboratory results: ChEMBL document CHEMBL4888484, “Replenishing the malaria drug discovery pipeline: Screening and hit evaluation of the MMV Hit Generation Library 1 (HGL1) against asexual blood stage Plasmodium falciparum ,using a nano luciferase reporter read-out” (2022)
In all, about 150,000 compounds went through this assay and about 540 (0.36%) showed an effect of 50% or more. Some of the results follow.

system: Plasmodium falciparum; test: Primary screen in NF54 nanoGlo assay, in single point, at 2uM, 72h; a lower Z score goes with more inhibition; assay type: functional, Erythrocyte; settings: timepoint 72 hour

Structure (SMILES)	% Inhibition [%]	Z score
O=C(NCc1cccnc1OCC(F)F)C1=CCCC1	-6	0.86
CCOc1ccc(C(=O)NCc2cc(=O)[nH]c(C3CCC3)n2)cc1	-14	1.82
CN(CC[C@H]1CCCCO1)C(=O)CN1CC(=O)N(C)c2ccccc2C1=O	-3	0.49
COC(=O)c1cccc(NC(=O)c2cscn2)c1OC(C)C	-5	0.78
CN(CC(=O)N1CCCC[C@@H]1Cc1ccc(F)cc1)S(C)(=O)=O	3	-0.36
COc1cccc(CN2CCCn3cccc3[C@H]2c2cccc(OC)c2OC)c1OC	-15	1.48
C=CCN1CCN(C(=O)C(CC)Oc2ccc3c(c2)C(c2cccc(F)c2)N(C(=O)CC(C)C)CC3)CC1 (stereo not drawn)	-11	1.75
COc1ccc(Cl)cc1N1CC[C@H](NC(=O)Cc2cnn(C)c2)C1	-5	0.82
CN(C(=O)C1CCOCC1)C1CCC1O (stereo not drawn)	-19	2.39
CC1CN(CC(=O)NC2CCCCCC2)CC(C)O1 (stereo not drawn)	-5	0.65
CN1C[C@H](c2ccc(F)cc2)C(C(=O)c2cccnc2)[C@]12C(=O)Nc1ccc(F)cc12 (stereo partly drawn)	-11	1.38
O=C(C1CCCC1)N1CCc2nc(N3CCCCC3)nc(Oc3ccccc3)c2C1	-5	0.56
CCCc1nc(CS(=O)(=O)Cc2ccn(C3CCCC3)n2)no1	-4	0.34
COc1ccc(CN[C@H]2[C@H](O)[C@H](O)C[C@@H]2c2cccnc2)cc1	8	-1.51
Cc1ccc(-c2cn[nH]c2[C@H]2CCCN(C(=O)c3[nH]cnc3C)C2)cc1	-5	0.87
O=C(Cc1ccccc1)Nc1ccc([C@@H](O)[C@H]2COCC(=O)N2)cc1	29	-3.23
O=C(Nc1ccc2c(c1)OCCO2)N1CCC[C@@H]1CO	-5	0.79
Cn1c(=O)c2ccn(CC(=O)N3CCCCC3)c2n(C)c1=O	-12	1.9
O=C(COCc1nnc(C(=O)Nc2cccc(F)c2)s1)NCc1ccco1	-5	0.69
Cc1ccc(NC(=O)c2nnn3c2NC(C(=O)O)=C[C@H]3c2ccccc2)cc1	-6	0.87
Cc1cc(C(=O)NCCn2nc3c(cc2=O)CCC3)no1	2	-0.32

Structure (SMILES)	% Inhibition [%]	Z score
CCC(=O)N[C@@H]1c2ccccc2C2(CCN(Cc3cc(C(C)C)[nH]n3)CC2)[C@H]1OC	15	-1.92
O=C(Cc1cccs1)N1C[C@@H]2C[C@H](NS(=O)(=O)c3cccs3)[C@H]1C2	30	-3.45
Cc1nn(CC2CC2)c(=O)n1-c1ccc(F)cc1	37	-4.75
COCCCNS(=O)(=O)c1ccc(-c2[nH]ncc2C(=O)N2CCCC2)o1	-5	0.6
C[C@@H](NC(=O)C1CCc2cn[nH]c2C1)c1ccccc1Cl (stereo partly drawn)	9	-1.17
CO[C@H]1CC[C@@]2(OC)CCN(C(=O)c3c(C)ncnc3C)[C@H]2C1	1	-0.27
Cc1cc(S(=O)(=O)N2CCOCC3(CC3)C2)ccc1C#N	-5	0.87
CNc1nc2c(s1)C[C@@H](C(F)(F)F)CC2	4	-0.69
COc1ccccc1NC(=O)[C@H]1CCCN(S(=O)(=O)c2ccc3c(c2)NC(=O)CO3)C1	-3	0.56
O=S(=O)(N1CCCCC1)N1CCCN(Cc2ccnn2-c2ccccc2)CC1	-15	1.88
CCn1nc(C(=O)Nc2ccccc2)cc1-c1ccc(Cl)s1	-7	0.99
CC1=C(C(=O)Nc2ccccc2Oc2ccccc2)CCCO1	7	-1.01
Cc1ccc(F)cc1-c1cccc(C(=O)N[C@H]2CCCNC2=O)c1	6	-1.27
COc1ccc(CCNC(=O)N2CC3CC2C(=O)O3)cc1 (stereo not drawn)	-12	2.29
CN(C(=O)[C@H]1CCC(=O)N(C2CCCCCC2)C1)C1CCOCC1	17	-2.17
CC(=O)N1CC[C@H]2CN(C(=O)c3ccc(C)c(C)c3)C[C@@]2(CO)C1	-12	1.69
Cc1ccc(-c2nccn3cc(C(=O)NCCCN4CCCC4)nc23)cc1	3	-0.4
COc1ccc(CN2CCCN(c3nnc(C)o3)CC2=O)cc1	-6	1.05
CC(C)c1c(C2CCN(C(=O)c3cccc(C#N)c3)CC2)noc1N	-2	0.32
C=C(C)COc1cccc(NC(=O)C(=O)NCc2csc(C)n2)c1	1	-0.16
Cc1cc(C)cc(OCc2nnc3n2CCN(C(=O)OC(C)(C)C)C3)c1	4	-0.64

Structure (SMILES)	% Inhibition [%]	Z score
N#Cc1ccccc1NC(=O)c1cc(S(=O)(=O)N2CCCC2)cs1	-6	1.16
C#CCCC1(CCC(=O)N2CCOc3c2c(C)nn3C)N=N1	0	-0.05
Cn1cccc(C(=O)NC2CCN(c3cc4c(nn3)CCCC4)CC2)c1=O	-11	1.92
CN(C[C@@H]1C[C@H](F)CN1Cc1ccnn1C)S(=O)(=O)CC12CCC(CC1)C2	-7	0.56
C=CCNc1nc(-c2ccc3c(c2)CCCC(=O)N3)cs1	-6	0.79
Cc1nn(C)c(C)c1CNc1ccc2nnnn2n1	-8	1.02
O=S(=O)(Nc1ccccc1-c1cn2c(n1)CCCC2)C1CC1	8	-1.04
Cc1nc(CC(C)C)oc1C(=O)Nc1ccc(N2CCOC[C@@H]2C)cc1	3	-0.33
O=C(N[C@H]1CCCCNC1=O)c1ccsc1	6	-0.89
COc1cc2c(-c3ccccc3)c(C)oc2cc1CN1CCc2nnc(CNC(C)=O)n2CC1	-4	0.44
CN1CCN(C(=O)c2ccc3c(c2)OCCO3)CC1=O	-3	0.57
Nc1ccc2c(c1)[C@@H](O)C[C@@H](C(F)(F)F)O2	29	-3.33
COCCn1c(=O)n([C@H]2CCCN(C(=O)Nc3cccc(C)c3)C2)c2ncccc21	-5	0.66
CS(=O)(=O)N1CCC(Cc2ccc(C(=O)N3CCc4ccccc43)cc2)CC1	-2	0.33
COc1c(C)cnc(Cn2cnc(C#N)c2C#N)c1C	-4	0.57
COc1ccc2c(c1)CCC[C@@]2(O)CNC(=O)c1ccc(S(=O)(=O)N(C)C)cc1	-1	0.18
Cc1ccc(C(=O)NCCCC(C)C)n1C	-15	2.43
Cc1nc([C@H](C)NC(=O)c2ccn(C(C)C)n2)n[nH]1	-16	3.23
CC(C)c1nn(-c2cccc(Cl)c2)c(C(C)C)c1C(=O)NC[C@H]1CCCO1	7	-0.99
O[C@@]1(Cn2ccnc2-c2ccncc2)CCCOC1	-9	1.49
O=S(=O)(Oc1cccc(-n2cncn2)c1)c1cc(F)cc(F)c1	-8	1.16

Structure (SMILES)	% Inhibition [%]	Z score
O=C1CC[C@H]2CN(S(=O)(=O)c3ccccc3F)CCN12	8	-0.95
O=C1OCCN1CCCN1C(=O)NC2(CCCCCCC2)C1=O	-3	0.4
CCC(=O)N1CC[C@H](NC(=O)Nc2ccc3nn(C(C)C)cc3c2)C1	-5	0.54
CN(C)[C@H]1CCN(C(=O)c2ccc(F)c(Cl)c2)C[C@H]1CCCO	-11	1.2
CCOc1ccc(S(=O)(=O)N2CCC[C@](CC3CC3)(C(N)=O)C2)cc1	-9	1.21
NC(=O)CCc1nc(CCc2ccccc2)no1	8	-1.22
c1ccc(CN2CCCC3CN(CCn4ccnc4)CCC32)cc1 (stereo not drawn)	2	-0.18
COc1ccc(S(=O)(=O)N2CCOCC2)cc1NC(=O)C1CC(=O)N(C2CCCC(C)C2C)C1 (stereo not drawn)	9	-1.17
Cc1noc2ncc(NC(=O)C(=O)NCCCc3ccccc3)cc12	-5	0.64
Cc1nc(-c2cccc(NC(=O)c3cnn4c3OCCC4)c2)cs1	-4	0.65
CCCOc1ccc(C(=O)N2CCN(c3ccc(NC(=O)c4ccc(OCc5ccccc5)cc4)cc3Cl)CC2)cc1	-3	0.53
Cc1nc(C(=O)Nc2cc(CC(C)(C)C)n[nH]2)c(=O)[nH]c1C	-4	0.66
O=C(CCc1ccccc1)c1cccnc1	2	-0.24
Cn1nc2c(c1CNC(=O)c1ccc(=O)[nH]n1)CCC2	21	-2.66
CS(=O)(=O)N1CC[C@H]2CN(C(=O)c3ccc4ncccc4c3)C[C@@]2(CF)C1	1	-0.17
CCN1Cc2cccc(CNc3ccc(C)c(Cl)c3)c2C1	-5	0.86
CCS(=O)(=O)N(C)Cc1cc(F)ccc1Cl	6	-0.61
Cc1ccc(S(=O)(=O)N2CCN=C2N2CCN(C)CC2)c(C)c1	-6	1.18
CNc1nc(N[C@H]2CC(C)(C)Cc3nc(N4CCOCC4)ncc32)ncc1F	-8	1.51
CCC(=O)Nc1cnc(OC)nc1OC	-9	1.63
CO[C@H]1CNC[C@@H]1NC(=O)Nc1ccc(Cl)cc1Cl	-8	1.03
